Experimental data taken from US4230719A, “Novel 2-[4-(3-methyl-2-thienyl)phenyl]propionic acid and pharmaceutically acceptable salt thereof and method for treating symptoms of inflammation and pain” (Toyama Chemical Co., Ltd., priority 1977, dated 1980).

What was measured:
[1] = tested on: Glomerulonephritis; assay: Action on glomerulonephritis in rats; type: in vivo, rat (Wistar strain, male)
Description: (ii) Action on glomerulonephritis in rats
Glomerulonephritis was induced in Wistar strain male rats (each weighing 180 to 200 g) by use of an anti-rat's kidney rabbit serum obtained from the serum of a rabbit sensitized with a homogenate of rat's kidney cortice. To the rat producing stable proteinuria was orally administered the test compound repeatedly at the rate shown in Table 12 for 2 weeks, and the inhibition of uric protein was examined.

[2] = tested on: uric acid in plasma; assay: Uricosuric action (b), uric acid in plasma of uric acid loaded rats; type: in vivo, rat (Wistar strain, male)
Description: (b) After fasting overnight, the test compound was orally administered to a Wistar strain male rat weighing 150 to 200 g. After one hour, the rat was loaded with 100 mg/kg of uric acid by intraperitoneal administration. Thirty minutes thereafter, a blood sample was drawn from the cervical vein and the uric acid concentration in the plasma was determined by use of a kit (Uric acid test Wako) for the uric acid determination.

[3] = tested on: gastric mucosa and intestine; assay: Test for ulcerogenic action (ii), three doses, rats on normal meal; type: in vivo, rat (Donryu strain, male); set-up: scale not given here
Description: (ii) In the same manner as in (i), the test compound was orally administered to each Donryu strain male rat (weighing about 180 g; 10 rats per group) which had received normal meal. The second dose was administered after 8 hours and the third dose after 16 hours from the second dose. Five hours after the last administration, the rats were treated in the same manner as in (i). The gastric mucosa injury and the intestinal injury were scored in the same manner as in (i).

[4] = tested on: prostaglandin biosynthesis (homogenate of guinea pig's lung); assay: Inhibitory action on prostaglandin biosynthesis (TBA method); conditions: read-out: ID50
[5] = tested on: gastric mucosa and intestine; assay: Test for ulcerogenic action (i), single dose, fasted rats; type: in vivo; conditions: 30 mg/kg p.o.
Description: (4) Test for ulcerogenic action
After 18 hours, the rats were killed by suffocation with chloroform and their stomachs were excised. After having been filled with 5 ml of 1% formalin to fix the gastric mucosa, each stomach was incised along the greater curvature to inspect grossly the extent of injury of the gastric mucosa. The extent of injury was scored as follows: 0, no lesion; 1, petechia or erosion; 2, 1-5 small ulcers; 3, many small ulcers; 4, many large ulcers or perforation. The intestinal injury was evaluated based on the incidence of erosion.

SMILES	Inhibition of uric protein ([1]; 10 mg/kg p.o./day, 7th day)	Inhibition of uric protein ([1]; 10 mg/kg p.o./day, 14th day)	Uric acid concentration in plasma, mean ± S.E. ([2]; 10 mg/kg p.o.)	Uric acid concentration in plasma, mean ± S.E. ([2]; 20 mg/kg p.o.)	Score, intestine, mean ± S.E. ([3]; 5 mg/kg × 3 p.o.)	Score, stomach, mean ± S.E. ([3]; 5 mg/kg × 3 p.o.)	Score, intestine, mean ± S.E. ([3]; 15 mg/kg × 3 p.o.)	Score, stomach, mean ± S.E. ([3]; 15 mg/kg × 3 p.o.)	Score, intestine, mean ± S.E. ([3]; 30 mg/kg × 3 p.o.)	Score, stomach, mean ± S.E. ([3]; 30 mg/kg × 3 p.o.)	IC50 [4]	Activity on glomerulonephritis (in words) ([1]; footnote of Table 12, dose not stated)	Inhibition of uric protein ([1]; 2 mg/kg p.o./day, 7th day)	Inhibition of uric protein ([1]; 2 mg/kg p.o./day, 14th day)	Intestine erosion incidence [5]
Cc1ccsc1-c1ccc(C(C)C(=O)O)cc1 (racemic) [Racemic compound, dl-2-[4-(3-methyl-2-thienyl)phenyl]propionic acid]	22.9%	35.0%	5.3 ± 0.26 mg/dL	3.4 ± 0.24 mg/dL	0.40 ± 0.16	0.95 ± 0.22	0.50 ± 0.17	1.20 ± 0.13	2.90 ± 0.31	1.80 ± 0.29	1400 nM	–	–	–	–
Cc1ccsc1-c1ccc(C(C)C(=O)O)cc1 (single isomer, unassigned; isomer d) [d-Isomer, d-2-[4-(3-methyl-2-thienyl)phenyl]propionic acid]	33.4%	44.1%	–	–	–	–	–	–	–	–	1100 nM	–	–	–	–
O=C(O)Cc1ccccc1Nc1c(Cl)cccc1Cl [Diclofenac sodium]	–	–	–	–	1.00 ± 0.21	0.90 ± 0.22	3.30 ± 0.26	1.15 ± 0.25	–	–	1000 nM	low activity	–	–	–
COc1ccc2c(c1)c(CC(=O)O)c(C)n2C(=O)c1ccc(Cl)cc1 [Indomethacin]	–	–	–	–	3.50 ± 0.22	1.95 ± 0.22	3.90 ± 0.10	3.10 ± 0.23	–	–	5700 nM	–	14.0%	8.9%	3/7
